According to the supplement of paper PMC8728848:
The list shows a part of the results.

Assays:
Assay in all cases: glycan array binding signal (z-score within array); higher = stronger binding
Settings in all cases: glycan notation: IUPAC condensed, linker removed
[1] = molecular target: Neu5Ac(a2-3)Gal(b1-3)GlcNAc6S
Procedure, shortened: (§1)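 Arrays were curated from the Consortium for Functional Glycomics database, 3228 in total, and kept only where the protein sequence was available. Binding is expressed as a within-array Z-score. This score was averaged across arrays of the same protein sequence at different concentrations or buffers and across linkers, and negative values can be read as non-binding.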

[2] = molecular target: Neu5Ac(a2-3)Gal(b1-3)[Fuc(a1-4)]GlcNAc
Procedure, shortened: as §1

[3] = molecular target: Neu5Ac(a2-3)Gal(b1-3)[Fuc(a1-4)]GlcNAc(b1-3)Gal(b1-3)[Fuc(a1-4)]GlcNAc
Procedure, shortened: as §1

[4] = molecular target: Neu5Ac(a2-3)Gal(b1-3)[Fuc(a1-4)]GlcNAc(b1-3)Gal(b1-4)[Fuc(a1-3)]GlcNAc
Procedure, shortened: as §1

[5] = molecular target: Neu5Ac(a2-3)Gal(b1-3)[GlcNAc(b1-6)]GalNAc
Procedure, shortened: as §1

[6] = molecular target: Neu5Ac(a2-3)Gal(b1-3)[Neu5Ac(a2-3)Gal(b1-4)]GlcNAc
Procedure, shortened: as §1

[7] = molecular target: Neu5Ac(a2-3)Gal(b1-3)[Neu5Ac(a2-6)]GalNAc
Procedure, shortened: as §1

[8] = molecular target: Neu5Ac(a2-3)Gal(b1-3)[Neu5Ac(a2-6)]GlcNAc(b1-3)[Fuc(a1-3)[Gal(b1-4)]GlcNAc(b1-6)]Gal(b1-4)Glc
Procedure, shortened: as §1

[9] = molecular target: Neu5Ac(a2-3)Gal(b1-3)]Neu5Ac(a2-3)Gal(b1-4)]GlcNAc
Procedure, shortened: as §1

Neu5Ac(a2-3)Gal(b1-4)Glc = molecular target: Neu5Ac(a2-3)Gal(b1-4)Glc
Procedure, shortened: as §1

[10] = molecular target: Neu5Ac(a2-3)Gal(b1-4)GlcNAc
Procedure, shortened: as §1

[11] = molecular target: Neu5Ac(a2-3)Gal(b1-4)GlcNAc(b1-2)Man
Procedure, shortened: as §1

[12] = molecular target: Neu5Ac(a2-3)Gal(b1-4)GlcNAc(b1-2)Man(a1-3)[GlcNAc(b1-4)][Neu5Ac(a2-3)Gal(b1-4)GlcNAc(b1-2)Man(a1-6)]Man(b1-4)GlcNAc(b1-4)GlcNAc
Procedure, shortened: as §1

[13] = molecular target: Neu5Ac(a2-3)Gal(b1-4)GlcNAc(b1-2)Man(a1-3)[Neu5Ac(a2-3)Gal(b1-4)GlcNAc(b1-2)Man(a1-6)]Man(b1-4)GlcNAc(b1-4)GlcNAc
Procedure, shortened: as §1

[14] = molecular target: Neu5Ac(a2-3)Gal(b1-4)GlcNAc(b1-2)Man(a1-3)[Neu5Ac(a2-3)Gal(b1-4)GlcNAc(b1-2)Man(a1-6)]Man(b1-4)GlcNAc(b1-4)[Fuc(a1-6)]GlcNAc
Procedure, shortened: as §1

[15] = molecular target: Neu5Ac(a2-3)Gal(b1-4)GlcNAc(b1-2)Man(a1-3)[Neu5Ac(a2-6)Gal(b1-4)GlcNAc(b1-2)Man(a1-6)]Man(b1-4)GlcNAc(b1-4)GlcNAc
Procedure, shortened: as §1

[16] = molecular target: Neu5Ac(a2-3)Gal(b1-4)GlcNAc(b1-2)[Neu5Ac(a2-3)Gal(b1-4)GlcNAc(b1-4)]Man(a1-3)[GlcNAc(b1-4)][Neu5Ac(a2-3)Gal(b1-4)GlcNAc(b1-2)[Neu5Ac(a2-3)Gal(b1-4)GlcNAc(b1-6)]Man(a1-6)]Man(b1-4)GlcNAc(b1-4)GlcNAc
Procedure, shortened: as §1

[17] = molecular target: Neu5Ac(a2-3)Gal(b1-4)GlcNAc(b1-2)[Neu5Ac(a2-3)Gal(b1-4)GlcNAc(b1-4)]Man(a1-3)[GlcNAc(b1-4)][Neu5Ac(a2-3)Gal(b1-4)GlcNAc(b1-4)Man(a1-6)]Man(b1-4)GlcNAc(b1-4)GlcNAc
Procedure, shortened: as §1

[18] = molecular target: Neu5Ac(a2-3)Gal(b1-4)GlcNAc(b1-2)[Neu5Ac(a2-3)Gal(b1-4)GlcNAc(b1-6)]Man(a1-6)[Neu5Ac(a2-3)Gal(b1-4)GlcNAc(b1-2)Man(a1-3)]Man(b1-4)GlcNAc(b1-4)GlcNAc
Procedure, shortened: as §1

[19] = molecular target: Neu5Ac(a2-3)Gal(b1-4)GlcNAc(b1-2)[Neu5Ac(a2-3)Gal(b1-4)GlcNAc(b1-6)]Man(a1-6)[Neu5Ac(a2-3)Gal(b1-4)GlcNAc(b1-2)Man(a1-3)][GlcNAc(b1-4)]Man(b1-4)GlcNAc(b1-4)GlcNAc
Procedure, shortened: as §1

[20] = molecular target: Neu5Ac(a2-3)Gal(b1-4)GlcNAc(b1-3)Gal
Procedure, shortened: as §1

[21] = molecular target: Neu5Ac(a2-3)Gal(b1-4)GlcNAc(b1-3)Gal(b1-3)GlcNAc
Procedure, shortened: as §1

[22] = molecular target: Neu5Ac(a2-3)Gal(b1-4)GlcNAc(b1-3)Gal(b1-4)GlcNAc
Procedure, shortened: as §1

[23] = molecular target: Neu5Ac(a2-3)Gal(b1-4)GlcNAc(b1-3)Gal(b1-4)GlcNAc(b1-2)Man(a1-3)[Neu5Ac(a2-3)Gal(b1-4)GlcNAc(b1-3)Gal(b1-4)GlcNAc(b1-2)Man(a1-6)]Man(b1-4)GlcNAc(b1-4)GlcNAc
Procedure, shortened: as §1

[24] = molecular target: Neu5Ac(a2-3)Gal(b1-4)GlcNAc(b1-3)Gal(b1-4)GlcNAc(b1-3)Gal(b1-4)GlcNAc
Procedure, shortened: as §1

[25] = molecular target: Neu5Ac(a2-3)Gal(b1-4)GlcNAc(b1-3)Gal(b1-4)GlcNAc(b1-3)Gal(b1-4)GlcNAc(b1-2)Man(a1-3)[Neu5Ac(a2-3)Gal(b1-4)GlcNAc(b1-3)Gal(b1-4)GlcNAc(b1-3)Gal(b1-4)GlcNAc(b1-2)Man(a1-6)]GalNAc
Procedure, shortened: as §1

[26] = molecular target: Neu5Ac(a2-3)Gal(b1-4)GlcNAc(b1-3)Gal(b1-4)GlcNAc(b1-3)GalNAc
Procedure, shortened: as §1

[27] = molecular target: Neu5Ac(a2-3)Gal(b1-4)GlcNAc(b1-3)Gal(b1-4)GlcNAc(b1-3)[Neu5Ac(a2-3)Gal(b1-4)GlcNAc(b1-3)Gal(b1-4)GlcNAc(b1-6)]GalNAc
Procedure, shortened: as §1

[28] = molecular target: Neu5Ac(a2-3)Gal(b1-4)GlcNAc(b1-3)Gal(b1-4)GlcNAc(b1-6)[Gal(b1-3)]GalNAc
Procedure, shortened: as §1

[29] = molecular target: Neu5Ac(a2-3)Gal(b1-4)GlcNAc(b1-3)Gal(b1-4)[Fuc(a1-3)]GlcNAc
Procedure, shortened: as §1

[30] = molecular target: Neu5Ac(a2-3)Gal(b1-4)GlcNAc(b1-3)GalNAc
Procedure, shortened: as §1

B1: Epa7 (Candida glabrata), Q6DTM6_CANGB (protein)
chain: MGSSHHHHHHSSGLVPRGSHMKDDYSSFLSNNNLGWTDPTEFPLGCSPNVTTPKNGLSMELYSYDLRKNGSYPCWDAAYLDPNYPRTGYKSHRLLAKVDGVTGNINFYYHATKGCTPEIDHLPASYNYPKPLTMTNFTMLLYGYFKPKVTGYHTFTISADDLLFVNFGAGNAFDCCKRESSADDFGNYQAYAVWGSQTAKDDLTVHLDAGLYYPIRIFFNNREYDAELSLTLKTESDSNPVIDFSDYFYSFDDTKDGCPGLVSYDTS
glycan array binding signal (z-score) [1]: -0.252 | glycan array binding signal (z-score) [2]: -0.258 | glycan array binding signal (z-score) [3]: -0.196 | glycan array binding signal (z-score) [4]: -0.242 | glycan array binding signal (z-score) [5]: -0.23 | glycan array binding signal (z-score) [6]: -0.266 | glycan array binding signal (z-score) [7]: 0.014 | glycan array binding signal (z-score) [8]: -0.199 | glycan array binding signal (z-score) [9]: -0.228 | glycan array binding signal (z-score) (Neu5Ac(a2-3)Gal(b1-4)Glc): -0.257 | glycan array binding signal (z-score) [10]: -0.26 | glycan array binding signal (z-score) [11]: -0.205 | glycan array binding signal (z-score) [12]: -0.229 | glycan array binding signal (z-score) [13]: -0.244 | glycan array binding signal (z-score) [14]: -0.232 | glycan array binding signal (z-score) [15]: -0.243 | glycan array binding signal (z-score) [16]: -0.241 | glycan array binding signal (z-score) [17]: -0.24 | glycan array binding signal (z-score) [18]: -0.215 | glycan array binding signal (z-score) [19]: -0.243 | glycan array binding signal (z-score) [20]: -0.245 | glycan array binding signal (z-score) [21]: -0.261 | glycan array binding signal (z-score) [22]: -0.231 | glycan array binding signal (z-score) [23]: -0.212 | glycan array binding signal (z-score) [24]: -0.255 | glycan array binding signal (z-score) [25]: -0.219 | glycan array binding signal (z-score) [26]: -0.24 | glycan array binding signal (z-score) [27]: -0.206 | glycan array binding signal (z-score) [28]: 1.11 | glycan array binding signal (z-score) [29]: -0.258 | glycan array binding signal (z-score) [30]: -0.235
